# Inconclusive means that the source gave no clear call. Such entries were picked first, then a sample of the others. The source made the active and inactive calls.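 How the source made its calls, unless noted: active means viability at or below 27.92% in each of two runs, the all-compound median minus 4 SD; inconclusive means no clear call, values can overlap the other calls; inactive means the rest.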
# Columns and labels:
# [1] = viability of HCT116 without oncogenic beta-catenin – human colon tumor cells, pilot screen (AID 823;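 active means cell viability at or below a set limit in both duplicate runs, the limit being the all-compound median minus 4 SD, cut at about 23% in these data, passing the limit was not always enough; inconclusive means no clear call, values can overlap the other calls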;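 further: 0% = wells killed by 20 µM Hyamine and 100% = untreated DMSO cell wells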); settings: HCT116 beta-catenin knockout viability, CellTiter-Glo, 60 h; at 10 µM; stronger effect = lower value
# [2] = RAM pathway blockade in budding yeast – dse1pr::URA3 reporter, 5-FOA selection, pilot screen (AID 869;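 active means inhibition over a set limit, the all-compound mean plus 3 SD, in both replicate runs; inconclusive means over that limit in just one replicate run; inactive means at or under that limit in both runs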;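 further: 0% = DMSO wells with no growth and 100% = 10 µM 1-NA-PP1 with full growth; RAM network block rescues cells from 5-FOA so hits raise OD615 growth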); settings: S. cerevisiae dse1pr::URA3 5-FOA growth, OD615, 2 d; at 10 µM; stronger effect = higher value; strain carries analog-sensitive mutant Cbk1 kinase
# [3] = viability of PTEN-null HCT116 cells – cell-based, HCT116 clonal line, CellTiter-Glo, pilot screen (AID 824); settings: HCT116 PTEN-deleted viability, 60 h, at 10 µM, stronger effect = lower value;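 further: 0% = 20 µM Hyamine control and 100% = vehicle cell control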
smiles,measurement,setting,value
CCCCNC(=O)NS(=O)(=O)c1ccc(NS(=O)(=O)c2ccccc2)cc1,viability,[1],inconclusive: 95.8%
same,inhibition,[2],inactive: 2.14%
O=C(CCS(=O)(=O)c1ccccc1)Nc1nc2c(s1)CCCC2,viability,[1],inconclusive: 22.1%
same,viability,[3],inconclusive: 27.3%
O=C(CN(C1CCCCC1)S(=O)(=O)c1ccccc1)N1CCCC1,viability,[1],inconclusive: 91.1%
same,inhibition,[2],inactive: 0.885%
CCCCCCSc1cc(C)nc2ncnn12,viability,[1],inactive: 93.6%
same,inhibition,[2],inconclusive: 3.62%
O=C(O)CCCC(=O)N1CCN(c2cccc(Cl)c2)CC1,viability,[3],inactive: 86.2%
COc1ccc(-c2nnc(NC(=O)c3cc(Cl)ccc3Cl)o2)cc1,viability,[3],inconclusive: 31.5%
CNC(=O)C1C2C=CC3(O2)C1C(=O)N(C1CC1)C3C(=O)NCc1ccc(OC)cc1 (stereo unspecified),viability,[3],inconclusive: 91%
Cn1c(/C(C#N)=C2/CCCCCN2)nc2ccccc21,viability,[3],inconclusive: 88%
Cc1ccc(C)c(S(=O)(=O)Nc2ccccc2C(=O)Nc2cc(C)on2)c1,viability,[3],inconclusive: 84%
O=C(OCC(=O)c1cccs1)c1ccc(NC(=O)c2ccco2)cc1,viability,[3],inactive: 76.1%
CCCC(=O)Nc1cc(C)c(NC(=O)Cc2ccccc2)cn1,viability,[3],inconclusive: 100%
COCCn1c(=O)[nH]c2cc(C(=O)NCCCN3CCN(c4ccc(F)cc4)CC3)ccc2c1=O,viability,[3],inconclusive: 98.6%
CSc1nc2ccc(NC(=O)C3CC(=O)N(Cc4ccco4)C3)cc2s1 (stereo unspecified),viability,[3],inconclusive: 86.2%
CC(=O)Nc1c(C(=O)c2ccc(F)cc2)oc2ccccc12,viability,[3],inconclusive: 88.1%
CCOC(=O)N1CCC(NC(=O)C(Cc2ccccc2)NC(=O)C2CCCCC2)CC1 (stereo unspecified),viability,[3],inconclusive: 106%
COc1ccc(N2CCN(CCCNC(=O)CCCn3c(=O)[nH]c4ccsc4c3=O)CC2)cc1,viability,[3],inconclusive: 96.7%
CC1CCCN(c2nc3c(c(=O)n(C)c(=O)n3C)n2Cc2ccccc2)C1 (stereo unspecified),viability,[3],inconclusive: 78.8%
CCOC(=O)CNC(=O)c1cn(C)c(=O)c2cc(OC)c(OC)cc12,viability,[3],inconclusive: 87.5%
CC(=O)c1c(C)n(-c2ccc(N(C)C)cc2)c2ccc(OCC(N)=O)cc12,viability,[3],inconclusive: 96.1%
O=C(Nc1cccc(Cl)c1Cl)c1ccncc1,viability,[3],inconclusive: 101%
O=C(CSc1nnc(-c2cccs2)o1)N1CCCCC1,viability,[3],inactive: 115%
CC1Cc2ccccc2N1C(=O)CCS(=O)(=O)c1cccc2nonc12 (stereo unspecified),viability,[3],inconclusive: 80%
O=C1CC(c2ccco2)CC(O)=C1C=NCCO (stereo unspecified),viability,[3],inactive: 105%
COc1ccc(N2CCN(CCNC(=O)c3ccc(NC(=O)C4CCCO4)cc3)CC2)cc1 (stereo unspecified),viability,[3],inconclusive: 90.9%
CCOC(=O)N1CCN(C(=O)CSc2nnc(COc3ccccc3)o2)CC1,viability,[3],inactive: 100%
CCN(Cc1ccncc1)C(=O)c1cccc(S(=O)(=O)N2CCOCC2)c1,viability,[3],inconclusive: 98.4%
COc1cc(-c2nc3cnccn3c2Nc2ccc3c(c2)OCCO3)ccc1O,viability,[3],inconclusive: 90.8%
COc1ccc(CNC(=O)c2ccc(NC(=O)C3CCCO3)cc2)cc1 (stereo unspecified),viability,[3],inconclusive: 110%
O=C(Nc1nnc(-c2ccc3c(c2)CCCC3)o1)c1ccccc1Cl,viability,[3],inconclusive: 28.2%
CC(C)(C)SCCNC(=O)COc1ccccc1,viability,[3],inactive: 96.6%
O=C(CS(=O)(=O)c1c[nH]c2ccccc12)Nc1ccc2c(c1)OCCO2,viability,[3],inconclusive: 94.2%
Cc1ccc(Cl)cc1N1CCN(S(=O)(=O)c2cccc(S(=O)(=O)N3CCCC3)c2)CC1,viability,[3],inconclusive: 81.8%
CCOC(=O)/C=c1\sc2n(c1=O)CCN=2,viability,[3],inconclusive: 96.4%
NCCOc1ccccc1-c1ccccc1,viability,[3],inconclusive: 90.5%
O=C(C1CCN(S(=O)(=O)c2cccc3cccnc23)CC1)N1CCCC1,viability,[3],inactive: 87.9%
O=C(NCCn1ccc2ccccc21)c1ccc(S(=O)(=O)N2CCCCC2)cc1,viability,[3],inactive: 71.1%
Cc1ccnc(Sc2nc3c(c(=O)[nH]c(=O)n3C)n2CCCc2ccccc2)n1,viability,[3],inconclusive: 91.2%
COc1cc(C2/C(=C(\O)c3cc(C)ccc3C)C(=O)C(=O)N2CCN(C)C)ccc1O (stereo unspecified),viability,[3],inconclusive: 92.4%
CC(c1ccco1)N(C(=O)c1ccc(S(=O)(=O)N2CCCCC2)cc1)c1ccccn1 (stereo unspecified),viability,[3],inconclusive: 97.7%
COC(=O)c1ccccc1NC(=O)C1CCCN(c2nnc(-n3cccc3)s2)C1 (stereo unspecified),viability,[3],inactive: 82.2%
O=c1[nH]c2ccc(S(=O)(=O)N3CCN(c4ccccc4F)CC3)cc2s1,viability,[3],inconclusive: 100%
CC1(C)SCC(C(=O)O)N1C=O (stereo unspecified),viability,[3],inconclusive: 95.2%
CC(C)(C)NS(=O)(=O)c1ccc(OCC(=O)Nc2ccc3c(c2)OCCO3)cc1,viability,[3],inconclusive: 101%
COc1ccc(-c2cc3ccccc3n2CC(O)Cn2nc(C)cc2C)cc1 (stereo unspecified),viability,[3],inconclusive: 74%
O=C(Nc1c(C(=O)Nc2ccccc2)cnn1-c1ccccc1)c1ccco1,viability,[3],inactive: 94.3%
same,inhibition,[2],inconclusive: 4.02%
O=C(Cn1c(=O)oc2cc(S(=O)(=O)N3CCCCCC3)ccc21)NC1CCCCC1,viability,[3],inactive: 93.8%
same,inhibition,[2],inconclusive: 3.48%
Cc1cc(C)nc(/N=c2/ssnc2Cl)c1,viability,[3],inconclusive: 51.9%
same,inhibition,[2],inactive: 1.81%
CCOC(=O)C1CCN(C(=O)c2ccc(NC(=O)C3CCCO3)cc2)CC1 (stereo unspecified),viability,[3],inconclusive: 90.8%
same,inhibition,[2],inactive: 1.09%
COc1ccc2c(c1)-c1nc(NC(=O)c3cccs3)sc1CC2,viability,[3],inconclusive: 28.9%
same,inhibition,[2],inactive: 3.16%
Cc1cccc(-c2nc(CS(=O)CC(=O)N3CCN(C)CC3)c(C)o2)c1 (stereo unspecified),inhibition,[2],inconclusive: 3.63%
COc1ccc(C(=O)OCCN2C(=O)c3ccccc3C2=O)cc1OC,viability,[3],inconclusive: 102%
same,inhibition,[2],inactive: 0.34%
COc1ccc(CC(=O)Nc2cc(C)c3c(=O)oc4ccccc4c3n2)cc1,viability,[3],inconclusive: 49.1%
same,inhibition,[2],inactive: 4.06%
Cc1occc1C(=O)N1CCN(Cc2ccccc2)CC1,inhibition,[2],inconclusive: 4.57%
CC1Cn2c(nnc2-c2ccccc2O)S1 (stereo unspecified),viability,[3],inactive: 98.2%
same,inhibition,[2],inconclusive: 5.24%
COC(=O)/C=C/S(=O)(=O)c1ccc(NC(C)=O)cc1,viability,[3],inactive: 85.4%
same,inhibition,[2],inactive: 0.565%
Cc1ccc2nc(NC3=NCN(Cc4ccco4)CN3)nc(C)c2c1,viability,[3],inconclusive: 28.1%
same,inhibition,[2],inactive: -0.585%
Cc1cc(NC(=O)CSc2cn(CCNC(=O)c3ccc(Cl)cc3)c3ccccc23)no1,viability,[3],inactive: 57.3%
same,inhibition,[2],inconclusive: 2.84%
CCOC(=O)Nc1ccc(S(=O)(=O)Nn2cnnc2)cc1,inhibition,[2],inconclusive: 3.77%
O=C1c2ccccc2C(Nc2ccc3c(c2)OCO3)N1Cc1ccc2c(c1)OCO2 (stereo unspecified),viability,[3],inactive: 70.1%
CCOc1ccc(-n2nnc3c(=O)n(CC(=O)c4ccccc4)cnc32)cc1,viability,[3],inactive: 97%
same,inhibition,[2],inconclusive: 3.98%
CCOC(=O)N1CCN(c2nc(SC)nc3sc4c(c23)CC(C)(C)OC4)CC1,viability,[3],inconclusive: 86.6%
same,inhibition,[2],inactive: 0.54%
O=C(Nc1nc2c(s1)CCCC2)c1cccnc1,viability,[3],inactive: 92.2%
same,inhibition,[2],inconclusive: 3.31%
CC(C)N(C(=O)C1CC(=O)OC12CCCCC2)C(C)C (stereo unspecified),viability,[3],inconclusive: 87.4%
same,inhibition,[2],inactive: 1.32%
CCN(CC)CCn1c(=S)[nH]c2ccccc2c1=O,viability,[3],inactive: 98.1%
same,inhibition,[2],inconclusive: 3.71%
N#CC(=C1SC=CS1)c1nc(-c2ccccc2)cs1,viability,[3],inconclusive: 78%
same,inhibition,[2],inconclusive: 4.83%
CCOC(=O)C1=CSC2=NS(=O)(=O)CCN12,viability,[3],inconclusive: 95.7%
same,inhibition,[2],inactive: 2.31%
OCC1(c2cc(C(F)(F)F)n[nH]2)CCCCC1,viability,[3],inconclusive: 91%
same,inhibition,[2],inactive: 1.2%
Cc1cc(Nc2cccc(Cl)c2)n2ncnc2n1,inhibition,[2],inconclusive: 4.2%
COc1ccc(N2CCN(C(=O)c3cc4c(-c5ccc(Cl)cc5)nn(C)c4s3)CC2)cc1,viability,[3],inactive: 71.4%
same,inhibition,[2],inconclusive: 4.61%
COc1ccc(C(=O)n2nc(C)cc2C)cc1Br,viability,[3],inactive: 99.3%
same,inhibition,[2],inconclusive: 4.58%
COCCCNC(=O)c1ccc(Cn2c(=O)[nH]c3ccccc3c2=O)cc1,viability,[3],inconclusive: 29.4%
same,inhibition,[2],inactive: 1.89%
CNC(=O)C1C2C=CC3(O2)C1C(=O)N(CCOC)C3C(=O)NCc1ccc(OC)cc1 (stereo unspecified),viability,[3],inconclusive: 95.7%
COc1cc(OC)cc(C(=O)Nc2cc(NC(=O)c3ccco3)ccc2OC)c1,viability,[3],inconclusive: 80.9%
same,inhibition,[2],inactive: 1.21%
CCN1CCN(Cc2nc3c(c(=O)n(C)c(=O)n3C)n2CCCc2ccccc2)CC1,viability,[3],inconclusive: 88.2%
COc1ccc(-c2cc(NCCc3ccncc3)n3ncnc3n2)cc1,viability,[3],inconclusive: 96.4%
same,inhibition,[2],inactive: 0.97%
Cc1nc(-n2nnc3ccccc32)c2c3c(sc2n1)CCCC3,viability,[3],inconclusive: 83.2%
same,inhibition,[2],inactive: 1.11%
CC(C)n1c(CNC(=O)c2ccccc2)nc2ccccc21,viability,[3],inconclusive: 90.4%
CC1(C)Cc2c(c(=S)nc(-c3ccccc3)n2CCCN2CCOCC2)CO1,viability,[3],inconclusive: 86.8%
same,inhibition,[2],inconclusive: 3.78%
COC(=O)C1CCN(C(=O)c2ccccc2NC(C)=O)CC1,viability,[3],inactive: 99.6%
same,inhibition,[2],inactive: -0.23%
CCOc1ccc(N(CC(=O)Nc2cccc(Cl)c2)S(=O)(=O)c2c(C)noc2C)cc1,inhibition,[2],inconclusive: 4.48%
Cc1c(C(=O)Nc2ccncc2)sc2nc(-c3ccc(F)cc3)cn12,viability,[3],inconclusive: 40.6%
same,inhibition,[2],inactive: 1.96%
COC(=O)c1cn(NC(=O)c2cnccn2)c(=O)c2ccccc12,viability,[3],inconclusive: 37%
same,inhibition,[2],inactive: 1.15%
Cc1cc(C)nc(NS(=O)(=O)c2ccc(NC(=O)c3cccs3)cc2)n1,viability,[3],inconclusive: 111%
